# Measured values as given in PubChem BioAssay AID1645886 (National Center for Advancing Translational Sciences (NCATS), 2021).
# “And” between values parts separate entries of the source, which are not always exact repeats. Equal values may be shown once. Hit rate of the full screen: of about 16,000 compounds, about 260 (1.6%) were called active. The inconclusive results got no clear call from the source; some entries with a clear call stand among them for comparison. Calls come from the whole dose curve; as a rule, active = well fitted inhibition curve with a large enough effect; inconclusive = small, poorly fitted or top-dose-only effect; inactive = no such curve, though single readings can be large or run the other way. Potencies of inconclusive entries are doubtful fits and often do not repeat.
# Target: Rap guanine nucleotide exchange factor 4 (Homo sapiens) (UniProt Q8WZA2)
# Test: Validation qHTS for antagonist of cAMP-regulated guanine nucleotide exchange factor 4 (EPAC2); note: nearly all actives have a fitted effect of over 40% in size
# Details: EPAC2 Rap1B BODIPY-GDP exchange, fluorescence; activity, negative = inhibition: at 112 µM (top of the series)
# Procedure, shortened: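 Normalized against a 6.5 mM cAMP agonist control, compounds were tested on 100 nM EPAC2 exchanging Rap1B-bound BODIPY-GDP (250 nM) for 50 uM GDP. Fluorescence drop (ex 480, em 540 nm) was tracked at room temperature over 30 min at 5-min intervals.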
# Potency is the fitted concentration of half-maximal effect; tags give direction and shape of the fitted curve.
# UniProt Q8WZA2, sequence (Q8WZA2 whole entry, looked up): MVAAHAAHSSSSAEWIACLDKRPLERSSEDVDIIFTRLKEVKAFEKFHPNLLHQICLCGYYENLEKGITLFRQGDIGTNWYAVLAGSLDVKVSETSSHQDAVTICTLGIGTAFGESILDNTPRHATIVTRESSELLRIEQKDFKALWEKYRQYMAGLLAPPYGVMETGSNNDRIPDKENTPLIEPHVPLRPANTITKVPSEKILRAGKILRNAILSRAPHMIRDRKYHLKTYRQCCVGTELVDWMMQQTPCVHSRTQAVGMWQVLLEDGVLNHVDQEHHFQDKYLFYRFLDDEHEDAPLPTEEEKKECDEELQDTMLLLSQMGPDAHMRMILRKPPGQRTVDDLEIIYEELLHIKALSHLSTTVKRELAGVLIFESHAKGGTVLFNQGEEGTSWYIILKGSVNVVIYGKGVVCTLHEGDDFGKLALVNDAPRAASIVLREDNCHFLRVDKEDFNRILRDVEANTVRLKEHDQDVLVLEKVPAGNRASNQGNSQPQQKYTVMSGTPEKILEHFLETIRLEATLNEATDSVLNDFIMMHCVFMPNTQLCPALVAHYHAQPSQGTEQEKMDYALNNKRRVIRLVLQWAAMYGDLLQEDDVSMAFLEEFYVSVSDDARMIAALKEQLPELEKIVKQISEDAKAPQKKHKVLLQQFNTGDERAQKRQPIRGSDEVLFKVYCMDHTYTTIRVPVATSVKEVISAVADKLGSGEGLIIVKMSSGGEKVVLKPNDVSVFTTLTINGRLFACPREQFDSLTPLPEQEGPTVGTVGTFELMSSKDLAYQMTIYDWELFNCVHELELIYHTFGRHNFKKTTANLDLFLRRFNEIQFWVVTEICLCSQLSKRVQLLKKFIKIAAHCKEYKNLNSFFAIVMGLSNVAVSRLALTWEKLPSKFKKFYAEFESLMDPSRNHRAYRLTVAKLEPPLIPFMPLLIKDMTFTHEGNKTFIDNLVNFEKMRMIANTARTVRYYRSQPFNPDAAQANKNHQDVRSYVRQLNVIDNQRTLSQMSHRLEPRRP
SMILES,Potency,"activity, negative = inhibition"
CCCCCCCCC(=O)NCc1cc(OC)c(O)cc1I,"inconclusive: 20 µM [inhibitor, full curve]",
O=S1(=O)CCOC[C@H](Cc2ccccc2)N1Cc1ccccc1Br,"inconclusive: 56.2 µM [inhibitor, partial curve, poor fit]",
COC(=O)C1=C(C)NC(C)=C([N+](=O)[O-])[C@H]1c1ccccc1C(F)(F)F,active: 50.1 µM,
COc1ccc(CNC(=O)c2cnn(-c3nccc(-c4ccco4)n3)c2C)cc1OC,,inactive: 1.28%
O=C(O)c1nc(=O)[nH]c(=O)[nH]1,,inactive: -17.5%
Oc1ccc(Cl)cc1CN1CCOc2c(O)cc(-c3nc4ccccc4s3)cc2C1,"inconclusive: 100 µM [inhibitor, single point]",
O=C(Nc1ccccc1)[C@@]12C[C@@H]1/C(=N/O)c1ccccc1O2,"inconclusive: 44.7 µM [inhibitor, partial curve]",
Cc1cc(C)n(CCC(=O)NCC2Cc3cc(Cl)cc(-c4cnccn4)c3O2)n1 (stereo not given),"inconclusive: 79.4 µM [inhibitor, single point]",
COC1(C2=NCCN2)COc2ccccc2O1 (stereo not given),,inactive: -22%
CCNc1ncc2nc(-c3ccccc3)c(=O)n(CCC#N)c2n1,,inactive: -17.2%
O=C(Nc1cccc(F)c1)N1CCCC2(CCN(C(=O)c3cc(C(F)(F)F)cc(C(F)(F)F)c3)CC2)C1,"inconclusive: 12.6 µM [inhibitor, partial curve, poor fit]",
O=C(c1ccncc1)N1CCC2(CC1)CN(C(c1ccccc1)c1ccccc1)C2,"inconclusive: 35.5 µM [inhibitor, partial curve]",
Cc1c(-c2ccc(O)cc2)nn(-c2ccc(O)cc2)c1-c1ccc(OCCN2CCCCC2)cc1,"inconclusive: 56.2 µM [inhibitor, partial curve]",
CCn1c(=O)[nH]c2cc(Cl)c(Cl)cc21,"inconclusive: 50.1 µM [inhibitor, partial curve]",
COc1ccccc1CNc1ncncc1-c1ccccc1C(F)(F)F,"inconclusive: 56.2 µM [inhibitor, partial curve, poor fit]",
CC(C)N1CCN(c2ccc(OC[C@H]3CO[C@](Cn4cncn4)(c4ccc(Cl)cc4Cl)O3)cc2)CC1,,inactive: -7.52% [at 56.6 µM]
CC[C@@]1(O)C[C@H](O[C@H]2C[C@H](N(C)C)[C@H](O[C@H]3C[C@H](O)[C@H](O[C@H]4CCC(=O)[C@H](C)O4)[C@H](C)O3)[C@H](C)O2)c2c(cc3c(c2O)C(=O)c2c(O)cccc2C3=O)[C@H]1C(=O)OC,,inactive: 24.9%
COC(=O)C[C@H]1c2ccccc2S(=O)(=O)N1c1ccc(N(C)C)cc1,"inconclusive: 89.1 µM [inhibitor, single point]",
COCC(C)NCc1cc2ccc(OC)cc2nc1N1CCN(c2ccc(F)cc2)CC1 (stereo not given),,inactive: -13%
CO[C@@H]1[C@@H](O[C@@H]2O[C@H](C)[C@@H](O[C@H]3C[C@@](C)(O)[C@@H](OC(=O)CC(C)C)[C@H](C)O3)[C@H](N(C)C)[C@H]2O)[C@@H](CC=O)C[C@@H](C)C(=O)/C=C/C2OC2C[C@@H](C)OC(=O)C[C@H]1OC(C)=O (stereo not given in full),,inactive: 0.721%

SMILES,Potency,"activity, negative = inhibition"
CN(C)c1ncc2nc(-c3cccs3)c(=O)n(CCC#N)c2n1,,inactive: 113%
COC(=O)c1ccccc1NS(C)(=O)=O,"inconclusive: 70.8 µM [inhibitor, partial curve, poor fit]",
CC(=O)CC(c1ccccc1)c1c(O)c2ccccc2oc1=O (stereo not given),"inconclusive: 39.8 µM [inhibitor, single point]",
O=S(=O)(O)c1cc(O)c2c(N=Nc3ccc(Nc4ccccc4)c4c(S(=O)(=O)O)cccc34)cc(S(=O)(=O)O)cc2c1,"inconclusive: 79.4 µM [inhibitor, partial curve, poor fit]",
CCC(=O)O[C@@H]1CC(=O)O[C@H](C)C/C=C/C=C/[C@H](O)[C@H](C)C[C@H](CC=O)[C@H](O[C@@H]2O[C@H](C)[C@@H](O[C@H]3C[C@@](C)(O)[C@@H](OC(=O)CC)[C@H](C)O3)[C@H](N(C)C)[C@H]2O)[C@H]1OC,,inactive: -10.6% [at 56.6 µM]
CCCN(CC)C(CC)C(=O)Nc1c(C)cccc1C (stereo not given),"inconclusive: 89.1 µM [inhibitor, single point]",
COc1ccc(-c2nc3cnc(N(C)C)nc3n(-c3ccccc3)c2=O)cc1,,inactive: 30.2%
O=C(c1cnccn1)N1CCC2(CCCN(C(c3ccccc3)c3ccccc3)C2)CC1,"inconclusive: 50.1 µM [inhibitor, partial curve, poor fit]",
Nc1ncnc2c1nc(Br)n2[C@@H]1O[C@H]2COP(=O)(O)O[C@@H]2[C@@H]1O,active: 1.26 µM,
Cn1nccc1C(=O)NCC1CCC2(CCN(Cc3c(O)ccc4ccccc34)CC2)O1 (stereo not given),,inactive: -14%
O=C(CN1C(=O)c2ccccc2C1=O)NCC1Cc2cccc(-c3ncccn3)c2O1 (stereo not given),"inconclusive: 7.94 µM [inhibitor, partial curve, poor fit]",
COc1cccc2c1C(=O)c1c(O)c3c(c(O)c1C2=O)C[C@@](O)(C(C)=O)C[C@@H]3O[C@H]1C[C@H](N)[C@H](O)[C@H](C)O1,inactive,
CNC(=O)c1cc(Oc2ccc(NC(=O)Nc3ccc(Cl)c(C(F)(F)F)c3)cc2)ccn1,"inconclusive: 39.8 µM [inhibitor, partial curve]",
Cc1ccc2[nH]c3c(c2c1)CN(C(=O)CC1(c2ccccc2)CC(=O)N(Cc2cccnc2)C1=O)CC3 (stereo not given),"inconclusive: 89.1 µM [inhibitor, single point]",
O=c1c2ccccc2oc2ccc(Oc3ccccc3)cc12,"inconclusive: 28.2 µM [inhibitor, partial curve, poor fit]",
C/C=C(/C(=C/C)c1ccc(O)cc1)c1ccc(O)cc1,"inconclusive: 39.8 µM [inhibitor, partial curve] and inconclusive: 562 nM [inhibitor, full curve]",
COc1ccccc1CN1CC2(CCN(S(=O)(=O)c3ccccc3)CC2)C1,,inactive: -22.4%
OC1(c2ccc(Cl)cc2)CCN(Cc2c[nH]c3ccccc23)CC1,"inconclusive: 70.8 µM [inhibitor, single point]",
COc1ccccc1N1CCN(CCN(C(=O)c2ccc(I)cc2)c2ccccn2)CC1,"inconclusive: 63.1 µM [inhibitor, partial curve, poor fit]",
CC(=O)C[C@H]1c2ccccc2S(=O)(=O)N1C1CCCCC1,"inconclusive: 89.1 µM [inhibitor, single point]",

SMILES,Potency,"activity, negative = inhibition"
COc1cc(OC)cc(C(=O)N2CCCC(n3cc(C(=O)NCC(C)C)nn3)C2)c1 (stereo not given),,inconclusive: -36.9% [inhibitor]
CS(=O)(=O)Nc1c(O)ccc2c1CCCC2C1=NCCN1 (stereo not given),"inconclusive: 39.8 µM [inhibitor, single point]",
CC(=O)N1CCC2(CC1)CN(C(c1ccccc1)c1ccccc1)C2,"inconclusive: 44.7 µM [inhibitor, full curve, poor fit]",
Oc1ccc(Cl)cc1Sc1cc(Cl)ccc1O,active: 50.1 µM,
COC(=O)C[C@H]1c2cc(C(F)(F)F)ccc2S(=O)(=O)N1C1CCCC1,"inconclusive: 14.1 µM [inhibitor, partial curve, poor fit]",
Oc1ccc(-c2nc(-c3ccc(F)cc3)c(-c3ccncc3)[nH]2)cc1,"inconclusive: 28.2 µM [inhibitor, full curve]",
CCCCCc1ccc(-c2cn(Cc3ccc(C(=O)c4ccccc4)cc3)nn2)cc1,"inconclusive: 89.1 µM [inhibitor, single point]",
C[C@@H]1CCC(=O)N(CC[C@H](N=[N+]=[N-])c2ccccc2)CC1,"inconclusive: 44.7 µM [inhibitor, partial curve, poor fit]",
COc1ccc([C@@H](C)C(=O)c2ccc(O)cc2O)cc1,"inconclusive: 14.1 µM [inhibitor, partial curve, poor fit]",
COc1ccc2c(c1)OCC(Cc1ccc(OC)c(OC)c1)C2O (stereo not given),"inactive and inconclusive: 56.2 µM [inhibitor, partial curve, poor fit]",
COc1ccc(CN2[C@@H](CC(=O)O)c3cc(F)ccc3S2(=O)=O)cc1,,inactive: -3.22%
COc1ccc(-c2nc3cnc(N4CCOCC4)nc3n(CCc3ccccc3)c2=O)cc1,,inconclusive: -41.2% [inhibitor]
COc1cccc(-c2nccc(NCc3cccc(C)c3)n2)c1,"inconclusive: 56.2 µM [inhibitor, partial curve]",
CCC1CN(Cc2cccc3nccnc23)Cc2cc(OC)ccc2O1 (stereo not given),"inconclusive: 100 µM [inhibitor, single point]",
CC/C(=C/c1ccccc1OC)c1cc(-c2ccccc2)cc2oc3ccccc3c12,"inconclusive: 28.2 µM [inhibitor, partial curve, poor fit]",
Cc1cc(C(=O)NCC2CCC3(CCN(Cc4ccc(-c5ccccc5)cc4)CC3)O2)n(C)n1 (stereo not given),"inconclusive: 79.4 µM [inhibitor, single point]",
CN1[C@@H]2CC(OC(=O)[C@H](CO)c3ccccc3)C[C@H]1[C@@H]1O[C@@H]12 (stereo not given in full),"inconclusive: 0.708 µM [inhibitor, full curve, poor fit]",
CO[C@@H]1[C@H](OC(=O)/C=C/C=C/C=C/C=C/C(=O)O)CC[C@]2(CO2)[C@H]1[C@@]1(C)O[C@@H]1CC=C(C)C,,inactive: -4.42%
Cc1nc2cnc(Oc3cccc(Cl)c3)nc2n(Cc2ccc(F)cc2)c1=O,"inconclusive: 15.8 µM [inhibitor, partial curve, poor fit]",
O=C(Nc1ccc(Cl)cc1Cl)[C@@H]1CC=C[C@@H]2CCN(C3CCCCC3)C(=O)[C@@H]21,"inconclusive: 20 µM [inhibitor, single point]",
